# Test results published in article PMC4336329 (PLoS ONE, 2015).
# In all, about 310,000 compounds went through this assay and about 14,000 (4.5%) showed an effect of 50% or more. Effects have a minus sign here. Some of the results follow.
# Target: human ether-à-go-go-related gene (hERG) potassium channel (human, UniProt Q12809)
# Assay: primary screen, population patch clamp on CHO cells stably expressing hERG
# 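Further: peak tail current of the secondary pulse compared with the same well before compound.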
# Chain of human ether-à-go-go-related gene (hERG) potassium channel (Q12809 whole entry, looked up): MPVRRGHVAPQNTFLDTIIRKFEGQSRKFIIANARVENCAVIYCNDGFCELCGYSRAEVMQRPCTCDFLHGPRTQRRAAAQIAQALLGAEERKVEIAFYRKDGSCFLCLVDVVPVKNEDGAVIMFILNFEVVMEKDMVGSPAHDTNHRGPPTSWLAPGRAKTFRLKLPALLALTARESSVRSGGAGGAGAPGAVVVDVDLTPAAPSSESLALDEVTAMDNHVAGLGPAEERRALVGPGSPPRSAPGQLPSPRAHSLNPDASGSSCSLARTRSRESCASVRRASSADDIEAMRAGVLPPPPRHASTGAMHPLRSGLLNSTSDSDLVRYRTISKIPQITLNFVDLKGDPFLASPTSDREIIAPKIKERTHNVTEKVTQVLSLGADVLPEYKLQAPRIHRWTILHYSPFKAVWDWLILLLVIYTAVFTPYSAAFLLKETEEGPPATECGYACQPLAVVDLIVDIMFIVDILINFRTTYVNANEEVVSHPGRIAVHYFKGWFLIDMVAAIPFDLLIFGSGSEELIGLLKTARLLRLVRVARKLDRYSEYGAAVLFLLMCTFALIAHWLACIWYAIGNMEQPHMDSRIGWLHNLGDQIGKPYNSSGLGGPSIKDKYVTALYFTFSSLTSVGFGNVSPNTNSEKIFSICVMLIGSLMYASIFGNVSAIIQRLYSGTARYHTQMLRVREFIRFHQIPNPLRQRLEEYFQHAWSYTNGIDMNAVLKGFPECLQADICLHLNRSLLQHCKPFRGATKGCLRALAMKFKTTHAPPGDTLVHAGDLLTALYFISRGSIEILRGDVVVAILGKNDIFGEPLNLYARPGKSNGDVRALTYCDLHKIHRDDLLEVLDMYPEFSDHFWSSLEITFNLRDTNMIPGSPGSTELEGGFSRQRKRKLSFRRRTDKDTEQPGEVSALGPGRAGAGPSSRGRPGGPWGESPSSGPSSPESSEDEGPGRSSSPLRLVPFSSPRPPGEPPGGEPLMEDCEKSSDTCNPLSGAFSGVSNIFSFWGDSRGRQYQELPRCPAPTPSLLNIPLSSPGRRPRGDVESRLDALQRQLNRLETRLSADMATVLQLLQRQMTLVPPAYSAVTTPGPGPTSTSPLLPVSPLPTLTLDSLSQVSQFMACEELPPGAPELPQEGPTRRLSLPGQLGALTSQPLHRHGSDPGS
row,SMILES,"hERG current change (%, negative = inhibition) at 10uM [%]"
1,CC(=O)N1N=C2C3CCN(CC3)C2C1c1ccc(Br)cc1 (stereo not drawn),4.62
2,O=C(/C(=C/O)N=Nc1ccc(Cl)cc1)c1ccncc1,4.31
3,CC(=O)N1N=C(c2ccc(C)cc2)CC1c1ccc2c(c1)OCO2 (stereo not drawn),-30.1
4,O=C(COc1cccc(Cl)c1)Nc1ccccc1N1CCCCC1,7.23
5,O=C1C(=O)N(Cc2cccnc2)C(c2cccc([N+](=O)[O-])c2)/C1=C(\O)c1ccc2c(c1)OCCO2 (stereo not drawn),3.48
6,Cn1nc(-c2ccccc2)c(CSc2ccccc2)c1Cl,5.8
7,Cc1cccc(C(=O)NC2CCCc3ccccc32)c1 (stereo not drawn),-12.5
8,CCN1CCN(C(=O)c2ccc(CNS(=O)(=O)c3cccc(OC)c3)cc2)CC1,40.7
9,O=C(Cc1cccc2ccccc12)Nc1nc2ccccc2[nH]1,-2.01
10,Cc1ccc(S(=O)(=O)N/N=C/c2cccc3nccnc23)cc1,8.95
11,O=C(CSc1nc(-c2ccccc2)cc(=O)[nH]1)Nc1ccccn1,11.2
12,COC(=O)COc1ccc2c(c1C)O/C(=C\c1ccco1)C2=O,-0.317
13,CCOCCc1nnc(NC(=O)CCC2CCCCC2)s1,8.26
14,O=C(c1cccc(F)c1)N1CCC(c2nc3ccccc3s2)CC1,-49.9
15,CCOC(=O)CNC(=O)N1CCc2ccc(NC(=O)c3ccccc3OC)cc2C1,0.878
16,CC(=O)N1CCC(N(CCCOC(C)C)S(=O)(=O)c2ccc([N+](=O)[O-])cc2)CC1,-35.3
17,O=C(/C=C/c1ccc(O)c([N+](=O)[O-])c1)c1ccc2ccccc2c1,18.4
18,COc1ccc(N(Cc2ccccc2)S(=O)(=O)c2cccc(C(=O)NC3=NCCS3)c2)cc1,6.28
19,Cc1ccc(SC(C)C(=O)NCC(C)C)cc1 (stereo not drawn),7.23
20,Cn1nc(-c2ccccc2)c(C(=O)NC(C(=O)O)c2ccccc2)c1Cl (stereo not drawn),14.2
21,COC(=O)c1cn(NC(=O)c2cc(OC)c(OC)c(OC)c2)c(=O)c2ccccc12,22.9
22,Cc1cccc(OCc2nnc(SCC(=O)Nc3ccc(C)c(C)c3)o2)c1,5
23,Cc1cccc(-c2nc3c(c(SCC(=O)N4CCOCC4)n2)Cc2c(CO)cnc(C)c2O3)c1,5.78
24,Cn1c(=O)cc(OCC(=O)N2CCN(Cc3ccc4c(c3)OCO4)CC2)c2ccccc21,-33.4
